Assay results as given in the BET-seq Pho4 binding data (Le et al. 2018).
Some of the results follow. These are noisy estimates, calculated here from bound and input reads.

Molecular target: T1, Pho4 (S. cerevisiae) (UniProt P07270)
T1 sequence: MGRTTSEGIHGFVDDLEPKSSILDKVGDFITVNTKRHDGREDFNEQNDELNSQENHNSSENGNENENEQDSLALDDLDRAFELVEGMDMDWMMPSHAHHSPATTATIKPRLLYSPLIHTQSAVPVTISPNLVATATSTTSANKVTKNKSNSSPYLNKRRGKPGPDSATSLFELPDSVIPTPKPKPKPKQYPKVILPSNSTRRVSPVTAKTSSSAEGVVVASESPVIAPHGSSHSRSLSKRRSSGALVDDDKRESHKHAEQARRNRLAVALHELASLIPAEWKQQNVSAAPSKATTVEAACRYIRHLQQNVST
Test: relative binding free energy (BET-seq); higher = weaker binding
Settings: reference: library average

| Sequence | relative binding free energy [kcal/mol] |
| --- | --- |
| GTAAGCACGTGCGTGG | -0.09 |
| CTTTACACGTGTGATG | 0.15 |
| TTTGCCACGTGCGGGT | -0.23 |
| CGTCTCACGTGTGGGC | 0.28 |
| AGGGCCACGTGCCGGG | -0.28 |
| ATCTTCACGTGAATGT | 0.33 |
| TCAGTCACGTGTAGGT | 0.13 |
| AATGGCACGTGGATGG | -0.16 |
| TGTAACACGTGGTTCG | -0.06 |
| TTGTACACGTGCTATG | -0.16 |
| TGGCTCACGTGTTTGA | 0.25 |
| GGAAGCACGTGGTAAG | -0.15 |
| AATGGCACGTGGGCAG | -0.33 |
| AATTGCACGTGTCTGT | 0.06 |
| TGGATCACGTGATTTG | 0.33 |
| TGGGCCACGTGTAGCT | -0.01 |
| GTAACCACGTGTTGGT | -0.11 |
| AGGAACACGTGGATTA | 0.13 |
| CGGCGCACGTGTGGAG | -0.1 |
| TTATACACGTGAGTAA | 0.19 |
| ATTTGCACGTGGGTGG | -0.11 |
| CTGGTCACGTGAATAT | 0.31 |
| GGGCGCACGTGATGGA | 0.1 |

| Sequence | relative binding free energy [kcal/mol] |
| --- | --- |
| TCGGTCACGTGTTTGC | 0.18 |
| GTCTGCACGTGGGTTG | -0.15 |
| GTAGTCACGTGGCATT | 0 |
| TGTATCACGTGTTTTG | 0.12 |
| GATGGCACGTGTCGGG | -0.07 |
| AGCTTCACGTGGTGAG | 0.23 |
| TGGTCCACGTGGGGGG | -0.08 |
| CGCGGCACGTGGTTTT | -0.05 |
| CTGGACACGTGGTGTG | -0.05 |
| ATGTTCACGTGGAAGG | 0.39 |
| TGGGGCACGTGATCTA | -0.08 |
| TTAGGCACGTGGCGGC | -0.2 |
| CTTGCCACGTGTTTGG | -0.08 |
| CGGTACACGTGTGATG | 0.24 |
| TACTGCACGTGTAGCG | 0.12 |
| TCGGTCACGTGGGCGC | 0.08 |
| TAACGCACGTGCGATG | 0.19 |
| GTGGACACGTGAAGGT | 0.31 |
| TGGTGCACGTGGTACG | -0.24 |
| TTTTGCACGTGGTGCG | 0.06 |
| CTGTGCACGTGCGGGA | -0.22 |
| GGTTACACGTGTGCGA | 0.24 |
| TGAGGCACGTGCCGGT | -0.27 |

| Sequence | relative binding free energy [kcal/mol] |
| --- | --- |
| GGCGACACGTGTTGTT | 0.11 |
| GTTGGCACGTGCTTGG | -0.1 |
| CTAGTCACGTGTTCGT | 0.13 |
| TGCGACACGTGGACGG | 0.1 |
| TTAATCACGTGTACGT | 0.16 |
| GGAGTCACGTGTGGGC | 0.19 |
| TAGTACACGTGTGGGG | 0.17 |
| TGGCTCACGTGATGTT | 0.49 |
| AGTGTCACGTGAGGCC | 0.25 |
| TATATCACGTGGCGAT | 0.04 |
| GGAAACACGTGTGTTT | 0.11 |
| CGTTGCACGTGGGAAA | 0.04 |
| ACCGGCACGTGGGTGT | -0.25 |
| TGTGACACGTGCTAAT | 0.1 |
| TGATGCACGTGTTAGG | -0.06 |
| TTTATCACGTGAGTGC | 0.26 |
| ATGGGCACGTGTTGTG | -0.09 |
| TGGGCCACGTGTGTCG | -0.17 |
| AGTTTCACGTGGATTG | 0.32 |
| AAGTTCACGTGGTTCT | 0.26 |
| TCGTTCACGTGGTCAG | 0.15 |
| GGTTCCACGTGGAGAG | 0.07 |
| TTATTCACGTGCTGGA | 0.13 |

| Sequence | relative binding free energy [kcal/mol] |
| --- | --- |
| CTTGTCACGTGGGCAG | -0.02 |
| TAGAGCACGTGAGCGG | 0.17 |
| GTACACACGTGGGTTG | -0.01 |
| ATAAACACGTGTTTAT | 0.02 |
| TTGTGCACGTGAACTG | 0.16 |
| TAACGCACGTGGGGCG | -0.22 |
| TTGTGCACGTGATGAA | 0.1 |
| TTATGCACGTGGTACT | -0.21 |
| TTTATCACGTGCGCGT | 0 |
| TCTGTCACGTGTTAGA | 0.13 |
| GTAAACACGTGGTCAG | 0.02 |
| GGTTTCACGTGGGTGA | 0.22 |
| CAAGTCACGTGAGGTT | 0.21 |
| ATAGGCACGTGGGCTC | -0.16 |
| CGTGACACGTGGTGTG | -0.16 |
| TTTCTCACGTGGATAA | 0.28 |
| TTGAACACGTGCGCGT | -0.06 |
| GTTGACACGTGAGAGT | 0.33 |
| TGGATCACGTGGAGCT | 0.09 |
| TTATGCACGTGGTGTT | -0.22 |
| TATAACACGTGGGGGC | -0.07 |
| TATTGCACGTGATTAT | 0.07 |
| ATTACCACGTGTCTGG | 0.12 |

| Sequence | relative binding free energy [kcal/mol] |
| --- | --- |
| AGTTTCACGTGACGTT | 0.32 |
| AAGATCACGTGTTTGG | 0.01 |
| TCGGGCACGTGGGACT | -0.2 |
| AGTTTCACGTGTGGGA | 0.23 |
| AAGTGCACGTGTTGTT | -0.03 |
| TGAGTCACGTGGTGTG | 0.06 |
| TCTCTCACGTGTGGGT | 0.11 |
| ACATACACGTGGTTTG | -0.04 |
| GTGGACACGTGAGGTG | 0.28 |
| TAAGTCACGTGCAGTG | 0.08 |
| TTCTTCACGTGAGGAT | 0.49 |
| GTGTACACGTGTGGGG | 0.11 |
| ACTGTCACGTGTTTAT | 0.08 |
| TATGTCACGTGGTGGT | 0.05 |
| TATACCACGTGGTAGT | -0.18 |
| TACGGCACGTGGTTAT | -0.12 |
| TTTGCCACGTGTTTAT | -0.09 |
| AATAGCACGTGGGTCG | -0.25 |
| AAGATCACGTGGTAGG | 0.11 |
| GAAGTCACGTGTAGTA | 0.2 |
| TTTAGCACGTGGACAG | -0.13 |
| TAGCTCACGTGTGGCT | 0.27 |
| CAGGTCACGTGTATGA | 0.14 |
